Results published in article PMC10726135.
Some of the results follow. At the low end of the ranking, values are background and their order means little. Measured with an extract: partners may take part in the binding.

What follows are sequences tested against T1, HNF4alpha8 (COS-7 nuclear extract) (UniProt P41235-5) (assay: protein-binding microarray). Settings: COS-7 nuclear extract on double-stranded Agilent 4x180k PBM; binding buffer, salt, pH and temperature not given; high values mean tight binding; double strand, one strand shown; sequences stand for … in …GCCTAGGGAGATTAGAGTATCGGTCGA.
T1 sequence: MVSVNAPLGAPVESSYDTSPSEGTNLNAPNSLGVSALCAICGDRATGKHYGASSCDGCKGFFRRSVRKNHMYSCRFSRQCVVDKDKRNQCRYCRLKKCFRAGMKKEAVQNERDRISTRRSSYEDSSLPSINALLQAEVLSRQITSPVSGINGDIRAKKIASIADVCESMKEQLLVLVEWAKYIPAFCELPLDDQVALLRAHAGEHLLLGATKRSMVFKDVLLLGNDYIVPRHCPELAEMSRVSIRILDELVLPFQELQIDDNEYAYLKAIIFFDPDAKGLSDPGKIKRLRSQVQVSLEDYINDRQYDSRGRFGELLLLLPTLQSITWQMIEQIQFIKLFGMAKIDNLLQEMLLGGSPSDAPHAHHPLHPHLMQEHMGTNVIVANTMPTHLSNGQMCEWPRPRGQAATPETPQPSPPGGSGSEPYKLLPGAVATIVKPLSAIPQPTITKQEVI

Row | Sequence | binding signal (log2 normalized intensity)
1 | TCTAACAGCTGATGAGGCACCAACACTTCC | -1.3
2 | CCTATGAGCCAAACACCATGCTAGGCTTCT | -1.23
3 | TAAGTGACCCAGGAGGAGAAGGGTGGGAAT | -1.25
4 | AAGACTTTGGACTTTGGACCTGAGGCTTTT | 10.3
5 | CTCTGGCCACTGCAGGGAGGACAGACTCTG | -1.27
6 | GCTGAGGCCCAGGAAGCTCCAGCGGGGTTT | -1.34
7 | ATCTGCAAATGCTTCTCCTGGCTTTAGATA | -1.27
8 | TATCAGCTTTGAGACACCTGGCCAAGTACA | -0.899
9 | CACATTCCTAGACCTTTGACCTTTATACCT | 8.55
10 | ATATGAAAGAGCCATGGACTGCTGACCTTT | 7.13
11 | TCCAAAGTTCTGAATGAGCAGACTGAGTTG | -0.933
12 | TCTCAGGGTCCACATTCCAGGAATATTCAG | 0.846
13 | TCCTCCCCTCCCCTCCCCCCACTCAAAATA | 6.78
14 | CAATCCCATGACCTTTGTACTAATGATTTG | 6.73
15 | CCAAATAGGTCCCTGCTTCCAAGTCTCAGC | -1.33
16 | CCTCCAATCAGGACAGACTGGTTGATCTGG | 1.05
17 | CTGATCACTACAAGCTTTGAAGGCAAGATA | -1.34
18 | CGCAGATCCCCGCTCCCCTCCCCCACCCGC | 6.34
19 | CAATCTTCTGGCCCCATCTATCTAGCCTGA | 0.823
20 | TCTAGGGTTGCCCAGGGAGAGCTGGACTTT | 6.83
21 | ATTGTGCTGACTGGTTGGAATTCCAGTGTT | 1.19
22 | CCTCAGTGTGGGACTTTGGTCTGCTGAGTC | 3.95
23 | CAACATGGACTTTGAGTCATAAGAAACATT | 4.28
24 | CTCTGAATCCTCAACATCCAGCACAGTGCT | -1.34
25 | ATTCGTTCATCAGATTAGAAGGCAGAGAAA | 0.72

Row | Sequence | binding signal (log2 normalized intensity)
26 | CTGTTGTGACATACTGCCTTTCTAGAACCA | -1.27
27 | TGTCTACAAACACAGAAGTGGACCTTCACC | 5.41
28 | GGGCAGGGTCAGAACCTGCCCATGACCTTT | 6.45
29 | GCAAGGGTGGTGACAAAGACAGATTAGATC | -0.00202
30 | AATCTCTCAAATCTAGCCAATGATGCTAGC | -1.28
31 | CAGAGTCACCTGTAGGGATGTGGGACTTAA | 0.446
32 | ATTCTCCCATTTTATGGGCTAACGCTGCTG | -1.4
33 | AGGGTTGAAGAAAGATCACACAAATGGATC | -1.25
34 | AAAGTCCGGAATTTCCTCCTGGCAGAGCAT | -0.791
35 | TCTTTTTGTTGTTAGAACAAAGTCCAAATT | 6.11
36 | AGTCAGTCAAAATGAATAGTCCTTTAGGAA | 0.806
37 | TCCCGAAAGTGACCCTCTGCCCCCTACACA | 5.92
38 | TTGTTAGACCCTTATCAGTAGTTCTCCTTT | 0.79
39 | CCCCACTGAAAGTGTGTTAAATTGAATTGG | 0.492
40 | GGTCCAAGGTTCAGAGCCTGGCTGGCCTGG | 1.5
41 | CCATCCTACAGGGTATGAATTTAACCTTTG | 4.92
42 | TCCATCATTCATACATTTGCCTGAACTTTA | 3.06
43 | AAATGTTATGGCTGGTTTGGTCTTTTATCT | 1.9
44 | CCCTGGACCTTGTCATACTGGTTGAATGGA | 2.73
45 | GGGTACAGACAATAGGAAGAGTGAGGTCAC | 2.23
46 | ATCACGGACTATCCCCGTCCGCGGAAGCAC | 0.356
47 | TTATTTCCCCTTTCTGTTGGAAGCTGATAA | 1.53
48 | AATTCACGTCATTTTGTCACCTACATGTGA | 1.31
49 | TTTCTGAAGACCTTCAACTGATTAGATAAG | -1.01
50 | AAGTGCAAGGGCCCAGAGGAAGGAATGCAC | -0.828

Row | Sequence | binding signal (log2 normalized intensity)
51 | GTCGAAACTACAAACGGATATTTGATCAAA | 0.459
52 | GGCGATAACTCCTTTGTGTGAATCGACCTT | 4.32
53 | AGGGTACACACCGTTAGCCAATATTTGCAA | -1.26
54 | TGTGATAAGAAATGAATGTCACTTTCTGAC | 0.366
55 | ACCCAGTGAATTCCTTCCTTATCAGCAGCC | -1.24
56 | TGGGCCAGGTATTTGGACTTTTTGTAGTTT | 3.34
57 | AGGCCTTCAACTGATAAGAAGGGGCCTAGC | -1.14
58 | GCGTAGTTCAGAGAAAACGAGGCACTATCT | -1.28
59 | CTTTTGAGGGTGACCGATCGTTATTGCCTT | 0.556
60 | CTCAAAGTCCACCAACTCTGTGAATTCATT | 1.24
61 | GGGTTGAGTGGTGACTGAAGTCCAACCCTC | 2.99
62 | AACCTGGCTGCGAGTCCCTGCTGTGTCACG | -0.901
63 | ATCAATACCAGCCAATTAGAAGGCTCCCTG | -1.37
64 | AGCTCCCCTTTTAAACTGAAGCATGCTATT | 0.869
65 | TCTGCCGAAGATATTTAACCTAAATCTAGT | -1.36
66 | ATCAAACAGATGTAGACATTGGAATGCGGG | 1.17
67 | AACTATTGAGACTTTGGGGTTTTATGGCAC | 1.3
68 | TCAACAATTCTATGAGTAGGTACAAATTCC | 2.45
69 | GAGATTACATTTGACTGAGGTGCAGGACAA | -0.867
70 | ACAAAGTCTATGCTAAGATGGTCTCAGGTG | 1.07
71 | TCAGCAGAAGGCCCCAGGTGAACCAGGGTG | -1.19
72 | TTTTCCTCGGGTGTCTCCGAGATAAGGCGT | -0.295
73 | CTGGCAAAGCCATGAAGCAATTCTGAGCCC | -1.37
